# The supplement of paper PMC6135742
# Counter-ions that a name gives are not always drawn. ± gives the standard deviation of the averaged measurements. Whole data set: some 2,600 compounds, median “MBP+ mature oligodendrocyte number relative to DMSO vehicle control” near -0.34, cut for the highest 2% near 13. This is one part of the list.
# System: jimpy (Plp1 jimpy) mouse iPSC-derived oligodendrocyte progenitor cells
# Experiment: MBP+ mature oligodendrocyte number relative to DMSO vehicle control (SDs above negative control mean); higher = more surviving jimpy oligodendrocytes (rescue)
# Conditions: 10 µM; 3 days
# 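Further: 10 µM single dose with 3-day oligodendrocyte differentiation.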
row,SMILES,MBP+ mature oligodendrocyte number
1,CCN(CC)CCCC(C)Nc1nc(C)cc(Nc2ccc3nc(C)cc(N)c3c2)n1 (stereo unspecified),2.49
2,CN(C)C/C=C/C(=O)Nc1cc2c(Nc3ccc(F)c(Cl)c3)ncnc2cc1O[C@H]1CCOC1 [Afatinib (BIBW2992)],< -6.7
3,CN1Cc2c(N)cccc2C(c2ccccc2)C1 (stereo unspecified) [Nomifensine maleate],-1.23
4,O=C(Nc1ccccc1)Nc1ccc(-c2ccc(C(=O)[C@@H]3CCC[C@H]3C(=O)O)cc2)cc1,7.17
5,OC[C@@H](O)[C@@H](O)[C@@H](O)CO [Ribitol],0.819
6,O=C1NC(=O)C(=Cc2ccc(-c3ccc(F)cc3)o2)S1 (stereo in doubt),0.66
7,O=C1NC(=O)C(c2ccccc2)(c2ccccc2)N1 [Phenytoin],0.339
8,"O=C1NC(=O)C(c2ccccc2)(c2ccccc2)N1 [5,5-Diphenylhydantoin]",0.398
9,CC(C)(O)c1ccccc1CC[C@@H](SCC1(CC(=O)O)CC1)c1cccc(/C=C/c2ccc3ccc(Cl)cc3n2)c1 [Montelukast Sodium],1.93
10,NS(=O)(=O)c1ccc(-n2nc(C(F)(F)F)cc2-c2ccc(Cl)cc2)cc1,0.931
11,COc1cccc(C(=O)NCCN2CCN(c3ccc(Cl)cc3)CC2)c1,-1.45
12,CC1(C)Cc2c(-c3ccccc3)c(-c3ccc(Cl)cc3)c(CC(=O)O)n2C1 [Licofelone],-1.79
13,CC(C)(C)c1cc(NC(=O)Nc2ccc(-c3cn4c(n3)sc3cc(OCCN5CCOCC5)ccc34)cc2)no1 [Quizartinib (AC220)],4.57
14,O=C(/C=C/c1cccc(S(=O)(=O)Nc2ccccc2)c1)NO [Belinostat (PXD101)],-6.52
15,Nc1cc2c(ncn2CCOCP(=O)(O)O)c(=O)[nH]1 [PMEG hydrate],-1.5
16,Nc1nc2c(cnn2CCc2ccccc2)c2nc(-c3ccco3)nn12,-1.39
17,"O=c1[nH]ccc2c(O)cccc12 [1,5-Isoquinolinediol]",-0.519
18,CC(C)(CO)[C@@H](O)C(=O)NCCC(=O)O [D-Pantothenic acid],1.4
19,CCN(CC)C(=O)C1(c2ccccc2)CC1CN (stereo unspecified) [Milnacipran HCl],1.22
20,Cc1cc(C(C)(C)C)cc(C)c1CC1=NCCN1 [Xylometazoline HCl],-1.9
21,Cc1cc(C(C)(C)C)cc(C)c1CC1=NCCN1 [Xylometazoline hydrochloride],-1.93
22,COc1cc(NC(=O)c2ccccn2)ccc1Cl,5.1
23,O=P(O)(O)C(O)(Cn1ccnc1)P(=O)(O)O [Zoledronic acid monohydrate],-0.637
24,O=P(O)(O)C(O)(Cn1ccnc1)P(=O)(O)O [Zoledronic Acid],-0.589
25,O=C(c1cc(O)c(O)c([N+](=O)[O-])c1)c1ccccc1F,1.29
26,CC#CCn1c(N2CCC[C@@H](N)C2)nc2c1c(=O)n(Cc1nc(C)c3ccccc3n1)c(=O)n2C [Linagliptin],2.01

row,SMILES,MBP+ mature oligodendrocyte number
1,CCN(CC)CCOCCOC(=O)C1(c2ccccc2)CCCC1 [Carbetapentane citrate],7.93
2,COc1cc(OC)c(NC(=O)Nc2cc(C)on2)cc1Cl,2.41
3,CNC(=O)c1ccc(N2C(=S)N(c3ccc(C#N)c(C(F)(F)F)c3)C(=O)C2(C)C)cc1F [Enzalutamide (MDV3100)],16.6
4,N[C@H]1CONC1=O [L-Cycloserine],-1.1
5,O=c1c(O)c(-c2ccc(O)cc2)oc2cc(O)cc(O)c12 [Kaempferol],-1.12
6,COc1cc2nc(N3CCN(C(=O)C4COc5ccccc5O4)CC3)nc(N)c2cc1OC (stereo unspecified) [Doxazosin Mesylate],-2.68
7,COc1cc2nc(N3CCN(C(=O)C4COc5ccccc5O4)CC3)nc(N)c2cc1OC (stereo unspecified) [Doxazosin mesylate],-2.85
8,N#C/C(=C(/N)Sc1ccc(N)cc1)c1ccccc1C(F)(F)F,-0.589
9,COc1cccc2c1C(=O)c1c(O)c3c(c(O)c1C2=O)C[C@@](O)(C(=O)CO)C[C@@H]3O[C@H]1C[C@H](N)[C@H](O[C@@H]2CCCCO2)[C@H](C)O1 [Pirarubicin],< -6.7
10,COC(=O)C1=CO[C@@H](O)[C@@H]2C(CO)=CC[C@H]12 [Genipin],3.27 ± 0.9
11,Cc1nc(C(=O)NCC(=O)O)c(O)c2ccc(Oc3ccccc3)cc12,6.04
12,CCCOc1ccccc1-c1nc2[nH]nnc2c(=O)[nH]1 [Zaprinast],< -3.85
13,CCCCCCNC(=O)n1cc(F)c(=O)[nH]c1=O [Carmofur],-5.28 ± 2
14,COc1ccc(Cl)cc1C(=O)NCCc1ccc(S(=O)(=O)NC(=O)NC2CCCCC2)cc1 [Glyburide],5.47
15,COc1ccc(Cl)cc1C(=O)NCCc1ccc(S(=O)(=O)NC(=O)NC2CCCCC2)cc1 [Glybenclamide],-1.22
16,Nc1nc(=O)n([C@@H]2CS[C@H](CO)O2)cc1F [Emtricitabine],-0.467
17,CC#C[C@]1(O)CC[C@H]2[C@@H]3CCC4=CC(=O)CCC4=C3[C@@H](c3ccc(N(C)C)cc3)C[C@@]21C [Mifepristone],0.825 ± 0.37
18,CCc1cccc(CC)c1NC(=O)N1Cc2[nH]nc(NC(=O)c3ccc(N4CCN(C)CC4)cc3)c2C1,-6.26
19,COC(=O)N[C@@H](C)CNc1nccc(-c2cn(C(C)C)nc2-c2cc(Cl)cc(NS(C)(=O)=O)c2F)n1,-6.01
20,CC[C@@H]1C(=O)N(C)c2cnc(Nc3ccc(C(=O)N[C@H]4CC[C@H](N5CCN(CC6CC6)CC5)CC4)cc3OC)nc2N1C(C)C [Volasertib (BI 6727)],< -4.81
21,CCn1c(=O)c2c(nc(/C=C/c3ccc(OC)c(OC)c3)n2C)n(CC)c1=O [Istradefylline],-4.18
22,CC1=NN(c2ccc(C)c(C)c2)C(=O)/C1=N\Nc1cccc(-c2cccc(C(=O)O)c2)c1O [Eltrombopag],1.07
23,NC(C(=O)O)C(O)C(=O)O (racemic) [DL-threo-beta-hydroxyaspartic acid],3.48
24,O=C(O)C1=CC(=C(c2ccc(O)c(C(=O)O)c2)c2ccc(O)c(C(=O)O)c2)C=CC1=O [Aurintricarboxylic acid],-1.14
25,C[C@@H]1C/C=C/C=C/C=C/C=C/[C@H](O[C@@H]2O[C@H](C)[C@@H](O)[C@H](N)[C@@H]2O)C[C@@H]2O[C@](O)(C[C@@H](O)C[C@H]3O[C@@H]3/C=C/C(=O)O1)C[C@H](O)[C@H]2C(=O)O [Natamycin],0.0731
26,CC(C(O)c1ccc(O)cc1)N1CCC(Cc2ccccc2)CC1 (stereo unspecified) [Ifenprodil Tartrate],20.3

row,SMILES,MBP+ mature oligodendrocyte number
1,CC(C(O)c1ccc(O)cc1)N1CCC(Cc2ccccc2)CC1 (stereo unspecified) [Ifenprodil tartrate],8.03
2,O=c1ccn([C@@H]2O[C@H](COP(=O)(O)OP(=O)(O)O)[C@@H](O)[C@H]2O)c(=O)[nH]1 [Uridine 5'-diphosphate sodium],0.503
3,CC(C)[C@H](N)C(=O)OCCOCn1cnc2c(=O)nc(N)[nH]c21 [Valaciclovir HCl],0.883
4,CC[C@H](NC(=O)[C@H](C)NC)C(=O)N1C[C@@H](O)C[C@H]1Cc1c(-c2[nH]c3cc(F)ccc3c2C[C@@H]2C[C@H](O)CN2C(=O)[C@H](CC)NC(=O)[C@H](C)NC)[nH]c2cc(F)ccc12 [Birinapant],-5.76
5,CC(C)N(CC[C@H](c1ccccc1)c1cc(CO)ccc1O)C(C)C,4.23
6,Cn1cc(C(F)(F)F)nc1-c1ccc(OCC(O)CNCCOc2ccc(O)c(C(N)=O)c2)cc1 (stereo unspecified),6.1
7,CN1CCN2c3ncccc3Cc3ccccc3C2C1 (stereo unspecified) [Mirtazapine],0.163
8,CC(C)(Oc1ccc(Cl)cc1)C(=O)OCCOC(=O)c1cccnc1 [Etofibrate],2.26
9,CC1(C)O[C@@H]2C[C@H]3[C@@H]4C[C@H](F)C5=CC(=O)C=C[C@]5(C)[C@@]4(F)[C@@H](O)C[C@]3(C)[C@]2(C(=O)CO)O1 [Fluocinolone Acetonide],8.12
10,Cc1cc(C)nc(NS(=O)(=O)c2ccc(N)cc2)n1 [Sulfamethazine],1.37
11,C[C@]12CC[C@@H]3c4ccc(O)cc4C[C@@H](CCCCCCCCC[S+]([O-])CCCC(F)(F)C(F)(F)F)[C@H]3[C@@H]1CC[C@@H]2O (stereo partly specified) [Fulvestrant],5.94 ± 4.3
12,Clc1ccc(C2(c3ccc(-c4cn[nH]c4)cc3)CCNCC2)cc1,< -5.15
13,CO/N=C(\C(=O)N[C@@H]1C(=O)N2C(C(=O)O)=C(COC(C)=O)CS[C@H]12)c1csc(N)n1 [Cefotaxime sodium],-0.943
14,C=C[C@](C)(O)CC[C@@H]1[C@@]2(C)CCCC(C)(C)[C@@H]2CC[C@@]1(C)O [Sclareol],< -4.81
15,CCS(=O)(=O)c1cccc(-c2cc(C(=O)NC3CCN(C)CC3)c(C)c3[nH]c4ncc(C)cc4c23)c1,< -6.01
16,COC(=O)[C@H](Cc1ccccc1)NC(=O)[C@@H](N)CC(=O)O [Aspartame],0.973
17,CCOC(=O)C1=C(N)Oc2ccc(Br)cc2C1C(C#N)C(=O)OCC (stereo unspecified),1.51
18,N#C/C(=C1/SC[C@@H](c2ccc(Cl)cc2Cl)S1)n1ccnc1 [Luliconazole],19.8
19,CCCCOc1cc(C(=O)OCCN(CC)CC)ccc1N [Oxybuprocaine HCl],7.92
20,O=C1O[C@H]([C@@H](O)CO)C([O-])=C1O.[Na+] [Sodium ascorbate],-0.523
21,"Cc1cc(Nc2cc(N3CCN(C)CC3)nc(Sc3ccc(NC(=O)C4CC4)cc3)n2)n[nH]1 [VX-680 (Tozasertib, MK-0457)]",< -6.7
22,Clc1ccc2nsnc2c1NC1=NCCN1 [Tizanidine HCl],2.2
23,Clc1ccc2nsnc2c1NC1=NCCN1 [Tizanidine hydrochloride],0.896
24,CC(=O)Nc1nnc(S(N)(=O)=O)s1 [Acetazolamide],-0.786
